Results on 89 compounds are retold here after paper PMC4336329 (PLoS ONE, 2015).

Among all 310,000 compounds or so, about 2,200 (0.71%) showed an effect of 50% or more. The effect is printed as a negative number. The list shows a part of the results.

Chain of human ether-à-go-go-related gene (hERG) potassium channel (Q12809 whole entry, looked up): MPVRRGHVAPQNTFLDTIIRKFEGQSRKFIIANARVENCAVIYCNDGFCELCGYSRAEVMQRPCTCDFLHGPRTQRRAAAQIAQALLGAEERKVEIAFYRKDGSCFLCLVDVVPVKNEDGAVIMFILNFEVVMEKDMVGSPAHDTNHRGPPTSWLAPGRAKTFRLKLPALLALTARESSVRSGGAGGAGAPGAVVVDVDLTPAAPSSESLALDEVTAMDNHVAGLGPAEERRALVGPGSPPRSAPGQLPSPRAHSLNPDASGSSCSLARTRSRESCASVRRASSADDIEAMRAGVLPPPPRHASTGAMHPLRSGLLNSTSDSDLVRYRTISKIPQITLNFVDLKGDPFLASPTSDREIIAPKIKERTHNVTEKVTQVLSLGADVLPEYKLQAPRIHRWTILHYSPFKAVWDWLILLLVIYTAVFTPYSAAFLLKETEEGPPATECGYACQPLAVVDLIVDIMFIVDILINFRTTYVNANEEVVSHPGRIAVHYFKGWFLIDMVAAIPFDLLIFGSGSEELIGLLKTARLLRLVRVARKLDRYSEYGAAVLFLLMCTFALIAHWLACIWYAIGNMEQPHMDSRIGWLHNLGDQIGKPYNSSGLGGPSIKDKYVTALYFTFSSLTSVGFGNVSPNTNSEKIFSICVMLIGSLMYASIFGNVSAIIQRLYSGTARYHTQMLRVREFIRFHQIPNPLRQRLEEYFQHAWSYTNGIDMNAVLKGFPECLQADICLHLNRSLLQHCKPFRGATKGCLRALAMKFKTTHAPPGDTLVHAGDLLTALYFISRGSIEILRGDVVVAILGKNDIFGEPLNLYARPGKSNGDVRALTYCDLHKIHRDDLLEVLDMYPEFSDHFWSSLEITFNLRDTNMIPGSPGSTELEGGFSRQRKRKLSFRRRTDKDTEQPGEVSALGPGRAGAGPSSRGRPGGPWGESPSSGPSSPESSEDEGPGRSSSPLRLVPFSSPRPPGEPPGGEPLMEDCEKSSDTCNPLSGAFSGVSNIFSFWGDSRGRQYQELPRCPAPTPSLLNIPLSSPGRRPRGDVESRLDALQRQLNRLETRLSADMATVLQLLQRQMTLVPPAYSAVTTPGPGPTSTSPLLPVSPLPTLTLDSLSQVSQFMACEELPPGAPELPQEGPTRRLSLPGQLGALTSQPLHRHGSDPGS

This assay has as its target human ether-à-go-go-related gene (hERG) potassium channel (human, UniProt Q12809). Briefly: primary screen, population patch clamp on CHO cells stably expressing hERG.
For `Cc1c(C)c2ccc(O[C@@H]3O[C@H](CO)[C@@H](O)[C@H](O)[C@H]3O)c(C)c2oc1=O`, the “hERG current change (%, negative = inhibition) at 1uM” value was 10.6%. For `c1ccc(Nc2nnc(-c3cccc4ccccc34)o2)cc1` the value was 9.72%. With `CCOC(=O)CSc1nc2cc(C(=O)NCc3ccco3)ccc2c(=O)n1C1CCCCC1` the figure was 9.64%; with `Cc1ccccc1-c1cc(C(=O)O)nn1CC1CC(c2cccc([N+](=O)[O-])c2)=NO1` (centres unmarked), 10.4%. For `CC(NC(=O)COC(=O)COc1cccc2c1OC(C)(C)C2)c1ccccc1` (centres unmarked), the “hERG current change (%, negative = inhibition) at 1uM” value came to 9.46%. With `COc1cccc(NS(=O)(=O)c2ccc3c(c2)N(C(C)=O)CCO3)c1` the figure was 18.4%; with `COc1cccc(OCc2cc(C(=O)N3CCN(C4CCCCC4)C(=O)C3)no2)c1`, 11.1%. With `O=C(CN1CCCCCCC1)Nc1cc(Cl)cc(Cl)c1` the figure was 3.21%; with `CCN1CCCC1CNC(=O)CCNC(=O)c1cc(OC)c(OC)c(OC)c1` (centres unmarked), 6.62%; with `CC(=O)Nc1ccc(NC(=O)CSc2nnc(CC(C)O)n2-c2ccccc2)cc1` (centres unmarked), 12.2%.

Consider `C=CCn1c(O)c(C(CC)=NCC2CCCO2)c(=O)[nH]c1=O` (centres unmarked), for which the “hERG current change (%, negative = inhibition) at 1uM” value is recorded as 10.2%. With `CC(=O)NCC1CCCN(C(=O)c2ccc(OC3CCN(Cc4ccccn4)CC3)cc2)C1` (centres unmarked) the figure was 10.9%. With `c1ccc(Nc2nc3ccccc3[nH]2)nc1` the figure was 5.9%.

As for `CN(C1CCCCC1)S(=O)(=O)c1ccc(S(=O)(=O)N2CCCC2)cc1`, the “hERG current change (%, negative = inhibition) at 1uM” value was 3.2%. For `C=CCn1c(=O)c(C=Nc2cccnc2Cl)c(O)n(CCCC)c1=O` the value was 2.63%. With `Cc1cc(C)c(C(N)=O)c(Nc2ccc(F)cc2)n1` the figure was 16.3%; with `Cc1ccc(NC(=O)CS(=O)CC(=O)NC(C)CCc2ccco2)cc1Cl` (centres unmarked), -4.83%; with `Cc1cc(C)c(NC(=O)CN(C)C(C)C(=O)N2CCc3ccccc32)c(C)c1` (centres unmarked), -2.31%. For `Cc1ccccc1S(=O)(=O)Nc1ncnc2ccccc12` the value was 11.9%; for `CC(C)C(=O)Nc1cccc(-c2nc3ccccc3c(=O)o2)c1`, -2.78%. On to `NC(=O)CSc1nnc(-c2ccc(S(=O)(=O)N3CCOCC3)cc2)n1CC1CCCO1` (centres unmarked), for which the “hERG current change (%, negative = inhibition) at 1uM” value is listed as 2.57%. With `c1ccc2nc(-c3ccc4c(c3)OCO4)ccc2c1` the figure was 13.7%; with `COc1ccc(C2=NO[C@@](CC(=O)O)(C(=O)Nc3ccc4c(c3)OCCO4)C2)cc1`, 11.2%. With `OCCN1CCN(c2nc(-c3ccccc3)c3cc(Br)ccc3n2)CC1` the figure was 3.88%; with `CCCc1nc2ccc(NC(=O)c3cccs3)cc2c(=O)n1Cc1ccccc1Cl`, -1.29%. With `Cc1ccc(S(=O)(=O)N2CCC(=O)N(C(CO)C(C)C)CC2)cc1` (centres unmarked) the figure was 6.9%; with `Cc1ccc(CN2C(=O)N/C(=C/c3cc(C)n(-c4ccccn4)c3C)C2=O)cc1`, 10.7%. On to `Cc1ccc(/C=C/C(=O)O)cc1S(=O)(=O)NCCO`, for which the “hERG current change (%, negative = inhibition) at 1uM” value is 7.82%. On to `COc1ccc(CC(=O)NC2=NCCS2)cc1`, for which the “hERG current change (%, negative = inhibition) at 1uM” value was found to be 0.418%. Regarding `NC(=O)CC(NC(=O)Cc1ccc(Cl)cc1)c1ccc(NCC2CC2)c([N+](=O)[O-])c1` (centres unmarked), the “hERG current change (%, negative = inhibition) at 1uM” value is -4.57%. Consider `Cc1csc(SCC(=O)Nc2ccccn2)n1`, for which the “hERG current change (%, negative = inhibition) at 1uM” value is given as -7.68%.

For the compound `CC(=O)c1ccccc1OC(=O)c1c(F)cccc1F`, the “hERG current change (%, negative = inhibition) at 1uM” value turned out to be 10.9%. With `CCOC(=O)CNC(=O)Cc1ccc(OC)cc1` the figure was 21.3%; with `NNC(=O)Cc1csc(-c2ccccc2)n1`, 8.66%. For `COC(=O)CCCCC1SCC(NC(=O)c2ccccc2)C1OC(C)=O` (centres unmarked) the value was 6.09%.

`CCc1cccc(CC)c1NC(=O)C(CC)Sc1nc2ccncc2[nH]1` (centres unmarked): the “hERG current change (%, negative = inhibition) at 1uM” value is recorded as 8.77%. For `CC(C)(C)C(=O)/C=C1\NC(=O)CS1` the value was 12%; for `COc1ccc(NC(=O)CN(C)S(=O)(=O)c2ccccc2)cc1OC`, 2.68%; for `CC1=NN2C(=N)/C(=C\c3cc(C)n(Cc4ccccc4)c3C)C(=O)N=C2S1`, 12.2%. With `Nc1nnc(CC(=O)N/N=C/c2ccc([N+](=O)[O-])cc2)s1` the figure was 10.4%; with `CC12CCC(C(=O)Nc3c(Cl)cccc3Cl)(C(Br)C1=O)C2(C)C` (centres unmarked), 2.92%; with `COc1ccc(C(C)=O)cc1CSc1nc2cc(C(=O)O)ccc2c(=O)n1Cc1ccccc1`, 10.9%. For `Cc1cc(C)nc(N2N=C(C(F)(F)F)CC2=O)n1` the value was 10%; for `Cc1cc(-c2ccccc2)c2c3c(c(-c4ccccc4)n2n1)c(=O)n(C)c(=O)n3C`, 6.03%; for `CCc1ccc2[nH]c(=O)c(-c3ccccc3)c(O)c2c1`, 18%.

Turning to `CCC1=C/C(=C\c2ccc3c(c2)OCO3)C(=O)S1`, the “hERG current change (%, negative = inhibition) at 1uM” value is given as 12.5%. With `Cn1cc(/C=N/NC(=O)c2cccc([N+](=O)[O-])c2)c2ccccc21` the figure was 22.9%; with `CC(C)CCN(C(=O)c1csnn1)C(C(=O)NC1CCCC1)c1ccc(F)cc1` (centres unmarked), 5.88%; with `Cc1ccc(NC(=O)CNC(=O)c2cccc(Cl)c2)nc1`, 8.09%. With `Cc1c(C(=O)O)oc2c3c(ccc12)OCCO3` the figure was 9.29%. For `COC(=O)COc1c(Cl)cc(C(c2c(C)[nH][nH]c2=O)c2c(C)[nH][nH]c2=O)cc1OC` the value was 11.4%; for `CC(C)CC(=O)Nc1ccc(-c2nc3ccccc3c(=O)[nH]2)cc1`, 11.8%. With `O=C1C=C(NCc2ccc(Cl)cc2)CC(c2ccco2)C1` (centres unmarked), the “hERG current change (%, negative = inhibition) at 1uM” value is -91.3%.

In the case of `CCOc1ccc(/C=C2\SC(=S)N(NS(=O)(=O)c3ccc(C)cc3)C2=O)cc1OC`, the “hERG current change (%, negative = inhibition) at 1uM” value turned out to be 11.3%.

Consider `CSc1ccccc1C(=O)NCCSc1ccc(C)cc1`, for which the “hERG current change (%, negative = inhibition) at 1uM” value is recorded as 6.56%. Regarding `CC(C(=O)O)N1C(=O)/C(=C/c2cccn2C)SC1=S` (centres unmarked), the “hERG current change (%, negative = inhibition) at 1uM” value is 2.92%. In the case of `CC(=O)NC1CCN(CC(=O)Nc2cccc([N+](=O)[O-])c2)CC1`, the “hERG current change (%, negative = inhibition) at 1uM” value is 1.66%.

On to `CC1CC(C)CN(S(=O)(=O)c2ccc(C(=O)Nc3nnc(-c4cccs4)o3)cc2)C1` (centres unmarked), for which the “hERG current change (%, negative = inhibition) at 1uM” value amounted to 5.29%.

On to `O=C(c1cccc(C(F)(F)F)c1)N1CCC(O)(CS(=O)(=O)Cc2ccccc2Cl)CC1`, for which the “hERG current change (%, negative = inhibition) at 1uM” value worked out at 7.38%. With `CCc1cccc2sc(N(CCCN3CCOCC3)C(=O)CS(=O)(=O)c3ccccc3)nc12.Cl` the figure was 3.41%. Take `COc1cc(Cl)c(CC(=O)c2c[nH]c3ccccc23)cc1OC`: the “hERG current change (%, negative = inhibition) at 1uM” value worked out at 15.3%. With `Cc1nc2c(C(=O)NCc3ccccc3)c[nH]n2c(=O)c1Cl`, the “hERG current change (%, negative = inhibition) at 1uM” value is reported as 20.4%. For `COc1ccccc1C(=O)NC(=O)COC(=O)c1ccc(Cl)cc1[N+](=O)[O-]` the value was 17.2%. For `COc1ccc(NC(=O)CSc2nnc(Cc3cccn3C)n2-c2ccc(F)cc2)cc1OC` the value was 10.6%. With `COc1cc(O)cc2occ(-c3ccc(O)cc3)c(=O)c12` the figure was -4.79%. Regarding `CC(C)(C)OC(=O)N1CCC(c2c(C(=O)N3CCN(C4CCCCC4)CC3)cnn2-c2ccc(F)cc2)CC1`, the “hERG current change (%, negative = inhibition) at 1uM” value was -26.1%.

Consider `O=C1NCCN1CCNS(=O)(=O)c1ccccc1[N+](=O)[O-]`, for which the “hERG current change (%, negative = inhibition) at 1uM” value is on record as 13.8%. With `CC(C)CC1(C(=O)NCCN2CCOCC2)C=CCN1C(=O)c1ccccc1` (centres unmarked) the figure was 15.2%; with `c1ccc(-c2nnc(OCc3cccnc3)c3ccccc23)cc1`, -9.76%; with `CC(CC(=O)NNC(=O)c1ccncc1)c1ccccc1` (centres unmarked), 15.6%. For `Cc1cc(C)n(-c2nnc(NCc3ccc(Cl)cc3)nn2)n1` the value was 6.73%; for `COc1ccc(OCC(=O)Nc2ccccc2OC(F)F)cc1`, -5.46%. For `CCN=C(Nc1ccc(Cl)cc1)c1cccnc1` the value was -3.37%.

On to `O=[N+]([O-])c1ccc(SCc2c(F)cccc2Cl)nc1`, for which the “hERG current change (%, negative = inhibition) at 1uM” value is listed as 10.5%. Take `Cc1cc(C)nc(/N=C2\NC(=O)CC(C(=O)O)N2c2ccc(Cl)cc2Cl)n1` (centres unmarked): the “hERG current change (%, negative = inhibition) at 1uM” value came to 2.9%. For `CNc1oc(-c2ccc(OCc3ccccc3)cc2)nc1C#N` the value was 12.5%; for `Cc1cc(C)n(-c2nc3ccccc3nc2N2CCN(C(=O)c3ccccc3)CC2)n1`, -2.11%. For `O=[N+]([O-])c1ccc(-c2cn3c(n2)SCC3)cc1` the value was 1.97%; for `CC1CCC(NC(=O)CN(C)S(=O)(=O)c2cnc[nH]2)CC1` (centres unmarked), 9.37%; for `Cc1cc(C)c(S(=O)(=O)N2CCCCC2)c(C)c1N(C)S(=O)(=O)c1ccccc1`, 9.46%.

Consider `COCCn1c(C)cc(C(=O)COC(=O)CNC(=O)c2ccccc2)c1C`, for which the “hERG current change (%, negative = inhibition) at 1uM” value amounted to 11.2%.

Take `COc1ccc(-c2nnc(NC(=O)C(C)C)s2)c(OC)c1`: the “hERG current change (%, negative = inhibition) at 1uM” value amounted to 13.3%.

As to `COc1cc(NC(=O)C2CC(c3cccc(Br)c3)=NO2)cc(OC)c1OC` (centres unmarked), the “hERG current change (%, negative = inhibition) at 1uM” value is given as 1.07%. With `Cc1ccc(CNC(=O)CCCn2nc(C)n3ccnc3c2=O)cc1` the figure was 15.1%. On to `CCCCC(=O)/C=C/n1c(=S)oc2ccccc21`, for which the “hERG current change (%, negative = inhibition) at 1uM” value was 19.7%. With `CC(Sc1ccccc1)C(=O)N1CCN(S(=O)(=O)c2ccccc2C(F)(F)F)CC1` (centres unmarked) the figure was -1.7%; with `COc1cccc(NC(=O)c2ccc(S(=O)(=O)N3CCCC3)cc2)c1`, 9.94%; with `Cc1nc(-c2ccc(C(=O)Nc3cc(S(N)(=O)=O)ccc3C)cc2)cs1`, 9.34%.

On to `COc1ccc(CN2CCN(C(C)C)C(CCO)C2)cc1Cn1cncn1` (centres unmarked), for which the “hERG current change (%, negative = inhibition) at 1uM” value is on record as 13.8%.
